# Reference: paper PMC6919601, “Identification of Plasmodium dipeptidyl aminopeptidase allosteric inhibitors by high throughput screening” (PLoS ONE, 2019)
# Among all 110,000 compounds or so, about 230 (0.21%) showed an effect of 50% or more. The list shows a part of the results.
# Target: DPAP1 (Plasmodium falciparum, UniProt Q8IIJ9)
# Assay: primary screen, percent inhibition; read by cleavage of a fluorogenic dipeptide substrate; higher = more effect of the substance
# Design: species or system P. falciparum D10 trophozoite lysates; single well
# 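Note: 30 min substrate incubation versus DMSO and 10 µM JCP410 controls.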
# DPAP1, sequence (Q8IIJ9 whole entry, looked up): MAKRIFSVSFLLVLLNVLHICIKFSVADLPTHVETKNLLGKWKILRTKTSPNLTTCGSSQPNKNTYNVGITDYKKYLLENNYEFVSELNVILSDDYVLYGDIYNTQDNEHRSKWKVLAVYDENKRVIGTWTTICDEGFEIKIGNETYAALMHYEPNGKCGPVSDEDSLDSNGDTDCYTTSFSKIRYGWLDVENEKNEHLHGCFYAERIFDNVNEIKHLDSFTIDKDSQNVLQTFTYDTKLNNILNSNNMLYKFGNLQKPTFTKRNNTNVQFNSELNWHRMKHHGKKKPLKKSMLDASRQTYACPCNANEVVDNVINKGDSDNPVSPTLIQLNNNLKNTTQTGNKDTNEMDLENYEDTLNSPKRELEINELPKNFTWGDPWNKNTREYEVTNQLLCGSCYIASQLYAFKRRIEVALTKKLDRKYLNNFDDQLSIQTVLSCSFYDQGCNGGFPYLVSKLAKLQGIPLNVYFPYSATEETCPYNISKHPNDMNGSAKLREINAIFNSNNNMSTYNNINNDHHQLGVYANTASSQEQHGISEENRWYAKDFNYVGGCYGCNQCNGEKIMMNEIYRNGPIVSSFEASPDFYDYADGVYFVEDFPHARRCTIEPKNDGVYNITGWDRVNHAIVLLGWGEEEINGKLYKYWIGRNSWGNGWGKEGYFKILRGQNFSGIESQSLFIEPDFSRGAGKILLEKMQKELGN
row,Compound,% Inhibition @ 10 uM [%]
1,Cc1cc2oc3c(c(=O)c2cc1C)C(c1ccc(O)cc1)N(CCCN(C)C)C3=O (stereo not drawn),-4.78
2,NC(=O)c1cccc2c1[nH]c1ccccc12,1.08
3,COc1ccc(CNC(=O)c2nn3c(c2Cl)NC(c2cccs2)CC3C(F)(F)F)cc1 (stereo not drawn),-0.142
4,Cc1ccccc1OCC(=O)N(C)c1ccc(NC(=O)C(F)(F)F)cc1,-2.56
5,COc1ccc(NC(=O)c2cc(Cl)ccc2Cl)cc1[N+](=O)[O-],-3.77
6,CC1CCC(N2CCCN(C)CC2)CC1 (stereo not drawn),-1.56
7,CCCOc1ccc(C2c3c(oc4cc(C)c(C)cc4c3=O)C(=O)N2c2nccs2)cc1 (stereo not drawn),2.1
8,COc1ccc2cc3c(N)nn(C(=O)c4ccc(Br)o4)c3nc2c1,1.66
9,CCOC(=O)C1CCCCN1Cc1cc(F)ccc1F (stereo not drawn),3.35
10,COCCNC(=S)N1CCc2cc(OC)c(OC)cc2C1COc1ccc2c(C)cc(=O)oc2c1 (stereo not drawn),2.17
11,CCOC(=O)c1c(NC=O)sc(C)c1-c1ccc2cc(OC)ccc2c1,-2.13
12,O=C(c1ccccc1F)N1CCC(c2nc(-c3ccc(S(=O)(=O)N4CCCC4)cc3)no2)CC1,-3.08
13,CCc1ccc(N2CCN(S(=O)(=O)N(C)C)CC2)cc1,1.62
14,CCOc1ccc(CNS(=O)(=O)c2ccc(-c3ccc(O)nn3)o2)cc1,4.27
15,Cc1ccc(C2C(C(=O)c3ccc4c(c3)OCCO4)=C(O)C(=O)N2CCCn2ccnc2)o1 (stereo not drawn),-4.06
16,CCc1ccc(C2CC(c3ccccc3)=NN2S(C)(=O)=O)cc1 (stereo not drawn),-10.2
17,Cn1cc(CCC(=O)NCc2cccc(Cl)c2)c2ccccc21,9.74
18,CCn1cc(CNC(=O)CSc2nc(-c3ccc(OC)c(OC)c3)cc(C(F)(F)F)n2)cn1,26.2
19,COc1ccc(C2CC(C(F)(F)F)n3ncc(C(=O)N4CCN(Cc5ccccc5)CC4)c3N2)cc1 (stereo not drawn),4.86
20,CCN(CC)CCNC(=O)NS(=O)(=O)c1ccccc1Cl,3.98
21,CCOc1ccc(NC=C2C(=O)CC(c3ccc(Cl)cc3)CC2=O)cc1 (stereo not drawn),-2.24
22,O=C(COc1ccccc1)NCCCn1ccnc1,0.145
23,COc1ccc(NC(=O)C2=C(C)NC(=O)NC2c2ccc(C)cc2)cc1 (stereo not drawn),-2.18
24,COc1ccc(-n2c(CNCCc3ccc(C)cc3)nc3ccccc3c2=O)cc1,0.324
25,Cc1onc(-c2ccccc2)c1C1=N/C(=C\c2ccc(Br)cc2)C(=O)O1,-4.13

row,Compound,% Inhibition @ 10 uM [%]
1,Cc1nc(=O)c(-c2ccccc2)c(C)n1CCCn1ccnc1,0.9
2,COc1cc(OC)cc(C(=O)Nc2nc(-c3nnn(-c4ccc(OC)c(Cl)c4)c3C)ns2)c1,6.03
3,CCc1ccccc1NC(=O)c1ccc(OC)c(OC)c1,-4.11
4,C=C(C)CNC(=S)N1CCNCC1,-0.902
5,CC(C)OCCCNC(=O)c1ccc(CNS(=O)(=O)c2ccc(Br)cc2)cc1,0.208
6,CC(C)OCCCNC(=O)Cn1cc2c(n1)CCCCC2,1.59
7,CCCCNc1nc2c(S(=O)(=O)c3cc(C)ccc3C)nnn2c2ccsc12,-8.1
8,COc1c(C(=O)Nc2ccc(Br)cn2)ccc2ccccc12,0.0719
9,Nc1ccc(Cl)cc1C(O)c1ccccc1 (stereo not drawn),0.132
10,Cc1[nH]c2ccccc2c1CCNC(=O)/C(=C/c1ccccc1)NC(=O)c1ccccc1,0.503
11,COC(=O)C1=C(C)N(C)C(=O)/C1=C\c1cccs1,-1.66
12,CNC(=O)Cn1ncc2c(C)n(Cc3ccc(Cl)cc3)c(C)c2c1=O,1.22
13,COc1cccc(-c2ccc3c(N)c(C(=O)Nc4ccc(F)cc4)sc3n2)c1,0.0504
14,O=C1CNC(=S)N1c1ccccc1,-2.88
15,COCCNC(=S)N(CCc1c(C)[nH]c2ccc(F)cc12)Cc1ccccc1OC,1.5
16,CCOCCCNC(=O)c1cc(Sc2ccc(OCC)cc2)nc2ccccc12,-0.0542
17,Brc1ccc(CN2CCN(Cc3ccccc3)CC2)o1,-4.5
18,CC(=O)/N=C(N)/N=c1\nc(C)c2ccc(C)cc2n1C(C)=O,3.27
19,Cn1c(=O)c2ncn(CC(=O)Nc3ccc(N4CCOCC4)c(Cl)c3)c2n(C)c1=O,-13.5
20,O=C(NCCCN1CCOCC1)c1ccc(CS(=O)(=O)Cc2ccc(Cl)cc2)o1,-1.34
21,CCCN1CCN(C(=O)Cn2c(-c3ccc(F)cc3)cc(C(=O)OCC)c2C)CC1,1.47
22,Cc1cc(O)c(C2=NCCSC(c3ccccc3)C2)c(=O)o1 (stereo not drawn),2.5
23,CCC(Sc1nc2cccnc2[nH]1)C(=O)NCC1CCCO1 (stereo not drawn),5.38
24,Cc1ccc(-c2nnc3c4cnn(-c5ccccc5)c4ncn23)cc1,-0.386
25,CC1(C)CC(=O)C(C(c2ccccn2)c2c[nH]c3ccccc23)=C(O)C1 (stereo not drawn),-5.2

row,Compound,% Inhibition @ 10 uM [%]
1,COc1ccc(-c2noc(CN(C3CCCCC3)S(=O)(=O)c3ccc(F)cc3)n2)cc1,2.14
2,c1ccc(CN2CCC(N3CCN(c4ccccc4)CC3)CC2)cc1,4.74
3,Cc1nc2sccn2c(=O)c1S(=O)(=O)NC1CCN(Cc2ccccc2)CC1,3.02
4,c1ccc(-c2nc3sc(-c4ccccc4)nc3s2)cc1,2.38
5,COC(=O)c1cc(S(=O)(=O)N2CCN(C3CCCCC3)CC2)c[nH]1,4.36
6,CN(C)C(=O)c1ccc2c(c1)C1C3CCC(C3)C1C(c1ccccc1)N2 (stereo not drawn),-3.5
7,CCn1cc(CCCC(=O)N2CCC3(CC2)OCCO3)c2ccccc21,-1.67
8,CN(CC(O)CN1CCOCC1)S(=O)(=O)O (stereo not drawn),6.31
9,N#C/C(=C\c1ccc(Cl)cc1Cl)c1nc(-c2ccc(-c3ccccc3)cc2)cs1,-7.02
10,Clc1ccc(N2CCN(C3CCN(CCc4ccccc4)CC3)CC2)cc1,-0.0908
11,O=C1CCCc2c1cc(C(=O)O)c(=O)n2-c1ccccc1,1.88
12,CCOc1cc2oc(=O)cc(-c3ccccc3)c2cc1Cl,1.18
13,Cc1cccn2c(=O)c(/C=C(\C#N)C(=O)NC3CCS(=O)(=O)C3)c(Oc3ccc(Cl)cc3)nc12 (stereo not drawn),-3.23
14,COc1cc(C(=O)NCc2nnc(SCC(=O)N3CCOCC3)o2)cc(OC)c1OC,-7.21
15,CCN(c1nc(C)cc(OC)n1)S(=O)(=O)c1ccc(C)cc1,-6.36
16,CC(=O)c1c(C)oc2ccc(N(C(C)=O)S(=O)(=O)c3ccc(F)cc3)cc12,-2.8
17,Cc1c(C=O)c2ccccc2n1CC(=O)O,-4.35
18,O=[N+]([O-])c1ccc(OCCOCCO)cc1,-1.02
19,CC1CCCN(S(=O)(=O)c2ccc3nc(O)cc(C(=O)NCC4COc5ccccc5O4)c3c2)C1 (stereo not drawn),-1.34
20,Cc1nn(C(=O)c2cccnc2)c(-c2ccccc2)c1Sc1ccccc1,-9.24
21,O=C(O)COc1ccc(Cl)cc1C1C2=C(O)CCCC2=NC2=C1C(=O)CCC2 (stereo not drawn),3.05
22,COc1ccc(CCC(C)NC2CCCCCCC2)cc1 (stereo not drawn),2.99
23,Cc1ccc(NC(=O)c2cccc(OC(F)F)c2)cc1F,-1.88
24,COc1ccc(/C=C2\SC(=O)N(Cc3ccccc3)C2=O)c(OC)c1,-1.35
25,COc1cccc(-n2nnc3c(=O)n(Cc4ccccc4C)cnc32)c1,-5.79

row,Compound,% Inhibition @ 10 uM [%]
1,Cc1ccc(-n2nc(C)c(/C=C3\Sc4ccccc4C3=O)c2C)cc1,-2.14
2,COc1cc(/C=C2\S/C(=N/c3cccc(C(=O)O)c3)N(C)C2=O)cc(Br)c1OC,-2.8
3,COc1ccc(-c2c(C#N)c(N)nc3c2CCCC3)cc1OC,6.08
4,COCCCNC(=O)c1ccc2c(c1)c(C)c(C)n2C,3.78
5,CC(C)Oc1ccc(C2CC(=O)N3C(=C2C#N)SCC3(O)c2ccc(F)cc2)cc1 (stereo not drawn),3.24
6,CC(C)C[C@H](NC(=O)c1cc(-c2ccccc2)c(-c2ccccc2)s1)C(=O)NCC#N,1.71
7,Cc1ccc(S(=O)(=O)NCC(=O)NCc2ccccc2Cl)cc1,-3.45
8,CC1(C)CCCC2=C1CC1C(=O)NC(=O)C1C2 (stereo not drawn),-0.833
9,COc1ccc(-n2c(S)nnc2CN2CCSCC2)cc1,-0.582
10,Cc1csc(-c2ccc(C(=O)N[C@@H](CC(C)C)C(=O)NCC#N)cc2)c1,-4.72
11,O=C(O)CCC(=O)Nc1ccc(-c2nc3ccccc3[nH]2)cc1,-2.55
12,O=C1c2ccncc2C(=O)N1Cc1ccccc1,1.93
13,Cc1ccc(CN2C(=O)N/C(=C/c3ccccc3F)C2=O)cc1,-5.44
14,Clc1ccc(CN2CCN(Cc3ccncc3)CC2)cc1,5.6
15,CN(C)CCOC(c1ccccc1)c1ccc(Cl)cc1 (stereo not drawn),-1.69
16,N#Cc1c(N2C(=O)c3ccccc3C2=O)sc2c1CCCC2,-4.75
17,COc1ccc(N(CC(=O)Nc2cccc(Cl)c2)S(C)(=O)=O)cc1Cl,-1.04
18,COCc1c(CN)cnc(C)c1N,-0.424
19,O=C(Cn1c(=O)n(Cc2ccc3c(c2)OCO3)c(=O)c2oc3ccccc3c21)NCc1ccccc1,1.95
20,CC(=O)N1CCN(Cc2ccc(Cl)c(Cl)c2)CC1,-1.41
21,CC(=O)Nc1cccc(Nc2nc(N3CCCCC3)nc(N(c3ccccc3)c3ccccc3)n2)c1,10.4
22,COc1cccc(-c2nc(CSCC(=O)NCCN3CCCC3)c(C)o2)c1,-1.05
23,COC(=O)N1CCc2cc(OC)c(OC)cc2C1c1ccc(OC)c(OC)c1 (stereo not drawn),-2.85
24,Cc1cc(OCC(=O)Nc2nccs2)cc(C)c1Cl,1.08
